# The supplement of paper PMC12355420
# Counter-ions that a name gives are not always drawn. Some of the results follow. Cut-off read from the data, not from the text of the source: active = 0.5 or less and inactive = the rest. Most values come without repeats; read them as rough.
# Tested on: HeLa VPS33A R498W KI + HA-SDC1-FLAG
# Assay: relative GAG core protein HA-SDC1 amount per cell number vs DMSO (fraction of DMSO); HeLa model of a glycosaminoglycan (GAG) storage disease; KI is knock-in and KO knock-out; SDC1 is syndecan 1; higher = more SDC1 (GAG core protein)
# Conditions: 50 µM; 24 h
# 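Note: HA-SDC1 level read out by In-Cell Western staining with an anti-HA antibody against the N-terminal tag, screening FDA-approved library drugs.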
row,SMILES,relative GAG core protein HA-SDC1 amount per cell number
1,CN1CCC[C@H]1c1cccnc1 [Nicotine Difartrate],inactive: 1.1
2,Cc1nccn1CC1CCc2c(c3ccccc3n2C)C1=O (stereo unspecified) [Ondansetron HCl],inactive: 0.848
3,CCN1CCN(C(=O)N[C@@H](C(=O)N[C@@H]2C(=O)N3[C@@H]2SC(C)(C)[C@@H]3C(=O)O)c2ccccc2)C(=O)C1=O [Piperacillin Sodium],inactive: 1.13
4,CCCCCCCCCCCCCCCCCC(=O)OC [Stearic Acid methyl ester],inactive: 0.869
5,"Nc1ccccc1NC(=O)c1ccc(CNC(=O)OCc2cccnc2)cc1 [Entinostat (MS-275,SNDX-275)]",inactive: 0.749
6,C[N+](C)(C)CCOC(=O)CCC(=O)OCC[N+](C)(C)C [Succinylcholine Chloride Dihydrate],inactive: 1.49
7,CNC[C@H](O)c1ccc(O)c(O)c1 [Epinephrine HCl],inactive: 0.664
8,CC(C)(C)C(=O)Oc1ccc(S(=O)(=O)Nc2ccccc2C(=O)NCC(=O)O)cc1 [Sivelestat (ONO-5046)],inactive: 0.922
9,COC(=O)C1=C(C)NC(C)=C(C(=O)OCCN2CCN(C(c3ccccc3)c3ccccc3)CC2)C1c1cccc([N+](=O)[O-])c1 (stereo unspecified) [Manidipine],active: 0.33
10,CCc1ccc(CCOc2ccc(CC3SC(=O)NC3=O)cc2)nc1 (stereo unspecified) [Pioglitazone HCl],inactive: 1.05
11,COc1ccc(NC(=O)c2ccc(C(=N)N(C)C)cc2)c(C(=O)Nc2ccc(Cl)cn2)c1 [Betrixaban],inactive: 0.773
